Data reported in the supplement of paper PMC6206098.
± gives the uncertainty stated by the source. The sequences are guide strands of siRNAs; only the seed at positions 2 to 7 varies.

Key:
3LL = experiment: cell viability relative to siNT1 control; higher = less toxic; conditions: concentration: 10 nM; 96 h; Mus musculus;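 note: Luminescence-based viability of cells reverse transfected in 384-well plates with lipid-complexed siRNAs built on a non-toxic 19mer backbone whose passenger strand carries 2′-O-methyl groups at positions 1 and 2, triplicates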
M565 = experiment: cell viability relative to lipid-only control; HeyA8 human ovarian and H460 human lung cancer; M565 mouse liver and 3LL mouse lung cancer; siNT1 is a non-toxic control siRNA; higher = less toxic; conditions: concentration: 10 nM; 96 h; Mus musculus
HeyA8 = experiment: as above; conditions: concentration: 10 nM; 96 h; Homo sapiens
H460 = experiment: as above; conditions: concentration: 10 nM; 96 h; Homo sapiens
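Throughout, for cell viability relative to lipid-only control: reverse lipid transfection in 384-well plates, in triplicate, of duplexes on a non-toxic 19mer backbone with passenger strand 2′-O-methylated at positions 1 and 2, luminescence viability read-out.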

Row | Sequence | cell viability (3LL) | cell viability (M565) | cell viability (HeyA8) | cell viability (H460)
1 | UAUCUCGACAUGUAAACCAAA | 102 ± 7.3% | 92.4 ± 26% | 93.3 ± 2.6% | 47.8 ± 5%
2 | UUUGAAUACAUGUAAACCAAA | 79.2 ± 12% | 92.1 ± 6.8% | 102 ± 9.4% | 74.8 ± 8%
3 | UGUUGCAACAUGUAAACCAAA | 84.3 ± 8.9% | 31 ± 0.56% | 47 ± 3% | 82.6 ± 12%
4 | UAAAGUCACAUGUAAACCAAA | 37.5 ± 8.1% | 49.3 ± 1.4% | 76.8 ± 8.8% | 80.7 ± 10%
5 | UAAGCAAACAUGUAAACCAAA | 83.9 ± 2.6% | 66.8 ± 3.8% | 84.1 ± 6.8% | 105 ± 15%
6 | UGGCUCUACAUGUAAACCAAA | 7.55 ± 0.72% | 29.9 ± 6.1% | 3.8 ± 0.36% | 11.4 ± 2.7%
7 | UAAGCGCACAUGUAAACCAAA | 59.7 ± 6.3% | 34.9 ± 3.5% | 89 ± 18% | 93.9 ± 16%
8 | UCGGAGGACAUGUAAACCAAA | 81.2 ± 18% | 24.1 ± 3.8% | 7.06 ± 0.93% | 24.6 ± 4.5%
9 | UGAUUUUACAUGUAAACCAAA | 39.2 ± 3.7% | 45 ± 11% | 50.5 ± 5.6% | 52.8 ± 5.9%
10 | UAGCGCUACAUGUAAACCAAA | 88.9 ± 10% | 37 ± 8% | 69.5 ± 4.6% | 55.9 ± 10%
11 | UCUGAAGACAUGUAAACCAAA | 97.5 ± 15% | 80.6 ± 16% | 92.2 ± 7% | 68.6 ± 14%
12 | UUCUAACACAUGUAAACCAAA | 103 ± 7.4% | 99.9 ± 15% | 73.2 ± 2.6% | 78.5 ± 2.6%
13 | UUGGGGAACAUGUAAACCAAA | 65.6 ± 5.9% | 40 ± 2.5% | 31.74 ± 0.12% | 43.8 ± 3.5%
14 | UAAGGUUACAUGUAAACCAAA | 78.9 ± 4.2% | 45 ± 4.4% | 74.9 ± 6% | 60.6 ± 5.8%
15 | UGGUCUAACAUGUAAACCAAA | 89.9 ± 10% | 88.5 ± 10% | 77.1 ± 12% | 55 ± 6.6%
16 | UCCGUCAACAUGUAAACCAAA | 99.4 ± 29% | 44.1 ± 10% | 84.1 ± 8% | 55 ± 10%
17 | UUCAGCCACAUGUAAACCAAA | 10.9 ± 6.1% | 51.2 ± 14% | 26.4 ± 6.8% | 18.7 ± 2.7%
18 | UUCUAAGACAUGUAAACCAAA | 96.4 ± 14% | 94.6 ± 16% | 102 ± 7% | 74.5 ± 11%
19 | UAUGGGCACAUGUAAACCAAA | 40.5 ± 4.7% | 13.2 ± 3.1% | 36 ± 8.4% | 31.2 ± 3.2%
20 | UAAAGGAACAUGUAAACCAAA | 107 ± 8.9% | 71.4 ± 16% | 98.3 ± 5.9% | 78.8 ± 25%

Row | Sequence | cell viability (3LL) | cell viability (M565) | cell viability (HeyA8) | cell viability (H460)
21 | UAAUAUGACAUGUAAACCAAA | 118 ± 7.8% | 75.5 ± 7.5% | 86 ± 11% | 75.5 ± 4%
22 | UGGCCCGACAUGUAAACCAAA | 44 ± 1.2% | 34.3 ± 3.3% | 45 ± 3.8% | 47.3 ± 5.7%
23 | UCACACUACAUGUAAACCAAA | 78.5 ± 16% | 52.6 ± 2% | 68.2 ± 5.8% | 15.3 ± 0.53%
24 | UUGUGUUACAUGUAAACCAAA | 72.5 ± 5.9% | 102 ± 14% | 73.8 ± 3.9% | 71.9 ± 13%
25 | UAGGGUUACAUGUAAACCAAA | 36.3 ± 6.8% | 16.9 ± 5.8% | 28.6 ± 2.1% | 57.3 ± 1.5%
26 | UUAAUAAACAUGUAAACCAAA | 100 ± 3.4% | 99 ± 4% | 86 ± 5.5% | 87 ± 24%
27 | UAUCGUCACAUGUAAACCAAA | 62.9 ± 8% | 50.7 ± 22% | 93.6 ± 6.5% | 95.7 ± 14%
28 | UAAGGGAACAUGUAAACCAAA | 84.5 ± 8.4% | 57.8 ± 0.74% | 83.3 ± 12% | 84.9 ± 30%
29 | UAAAUAGACAUGUAAACCAAA | 105 ± 8.7% | 97.5 ± 17% | 105 ± 12% | 78.9 ± 8.8%
30 | UCCUCCGACAUGUAAACCAAA | 86.9 ± 14% | 65.8 ± 8.5% | 86.9 ± 4.8% | 61.5 ± 8.4%
31 | UCAAAAUACAUGUAAACCAAA | 91.2 ± 14% | 68.5 ± 10% | 83 ± 12% | 47.5 ± 4.5%
32 | UCGGAAUACAUGUAAACCAAA | 95.9 ± 18% | 55.7 ± 7.3% | 92.3 ± 4.9% | 70.2 ± 11%
33 | UAGCCCGACAUGUAAACCAAA | 60 ± 16% | 14.5 ± 3.9% | 71.5 ± 6.4% | 61.4 ± 5.9%
34 | UAUCGCUACAUGUAAACCAAA | 61.5 ± 7.9% | 75.7 ± 5.8% | 81.8 ± 11% | 47 ± 5.8%
35 | UGGCGUCACAUGUAAACCAAA | 33.7 ± 28% | 13.3 ± 1.4% | 14.2 ± 3.3% | 28.2 ± 1.4%
36 | UUAGUGAACAUGUAAACCAAA | 84.4 ± 10% | 80.2 ± 2.5% | 91.2 ± 5.4% | 70.5 ± 10%
37 | UGAAUUUACAUGUAAACCAAA | 104 ± 14% | 48.8 ± 4.8% | 67.8 ± 2.4% | 62.1 ± 9.4%
38 | UGAUUAUACAUGUAAACCAAA | 42 ± 14% | 14.1 ± 2.3% | 52.3 ± 6.5% | 69.3 ± 4.5%
39 | UUUUGACACAUGUAAACCAAA | 85.9 ± 5.4% | 77.2 ± 13% | 50.2 ± 4.7% | 61.1 ± 7.3%
40 | UGCAGCAACAUGUAAACCAAA | 43 ± 7.8% | 47 ± 1% | 71.7 ± 7.1% | 67.8 ± 7.5%

Row | Sequence | cell viability (3LL) | cell viability (M565) | cell viability (HeyA8) | cell viability (H460)
41 | UCGAUUGACAUGUAAACCAAA | 93.4 ± 17% | 63.4 ± 7% | 84.2 ± 3.4% | 70.6 ± 10%
42 | UCGUUCGACAUGUAAACCAAA | 87.1 ± 16% | 39.2 ± 7% | 54.5 ± 6.3% | 67.2 ± 12%
43 | UGCGGAGACAUGUAAACCAAA | 82.8 ± 7.4% | 29.2 ± 2.9% | 23.5 ± 0.41% | 39.1 ± 1.9%
44 | UCCUCAGACAUGUAAACCAAA | 89.9 ± 22% | 39.6 ± 8.1% | 95.3 ± 4.5% | 60 ± 3.8%
45 | UACCCCUACAUGUAAACCAAA | 20 ± 5.4% | 25.1 ± 3% | 25.2 ± 3.5% | 23 ± 1.3%
46 | UCUCUCUACAUGUAAACCAAA | 79 ± 8.3% | 37.3 ± 10% | 61.2 ± 1.6% | 38.6 ± 2%
47 | UGUCGUAACAUGUAAACCAAA | 88.6 ± 14% | 44.9 ± 7.8% | 79.5 ± 5% | 70.1 ± 21%
48 | UCCACUGACAUGUAAACCAAA | 108 ± 27% | 68.6 ± 17% | 92.7 ± 5.1% | 70.1 ± 12%
49 | UCUUGCUACAUGUAAACCAAA | 77.6 ± 15% | 71.9 ± 5% | 53.8 ± 3.5% | 46.9 ± 2.9%
50 | UUUAUAGACAUGUAAACCAAA | 96.2 ± 5.6% | 70.9 ± 13% | 92.2 ± 10% | 71.7 ± 3.3%
51 | UGCAUUGACAUGUAAACCAAA | 90 ± 15% | 61.8 ± 8.4% | 66.3 ± 25% | 59.3 ± 2.4%
52 | UUGAGCCACAUGUAAACCAAA | 16.6 ± 3.3% | 23.7 ± 6% | 71.9 ± 2% | 54.6 ± 6.9%
53 | UACGGUGACAUGUAAACCAAA | 83.7 ± 14% | 62.8 ± 4.3% | 84.2 ± 9.4% | 83.3 ± 4.6%
54 | UUCAUCAACAUGUAAACCAAA | 64 ± 15% | 56.6 ± 15% | 66.5 ± 8.1% | 60 ± 4.1%
55 | UGUCGUGACAUGUAAACCAAA | 88.6 ± 20% | 60.9 ± 2.5% | 66.5 ± 16% | 69.2 ± 16%
56 | UUUUUGCACAUGUAAACCAAA | 66.3 ± 6% | 118 ± 20% | 61.8 ± 14% | 30.4 ± 0.65%
57 | UGGCGGGACAUGUAAACCAAA | 28.3 ± 8.4% | 27.7 ± 2.5% | 2.66 ± 0.38% | 10.2 ± 0.99%
58 | UACUUGCACAUGUAAACCAAA | 11.1 ± 3% | 11.5 ± 4.3% | 27.3 ± 3% | 40.4 ± 0.57%
59 | UCGCAAAACAUGUAAACCAAA | 93.8 ± 13% | 72.9 ± 8.7% | 84.7 ± 2.4% | 70.3 ± 5.7%
60 | UGAUUGCACAUGUAAACCAAA | 49.9 ± 4.4% | 54.8 ± 6.1% | 22 ± 2.4% | 56.2 ± 6.6%
